# The other results are listed elsewhere or left out. The list includes weakly bound sequences.
# Molecular target: T1, MBP-FoxP3dN (UniProt Q99JB6)
# T1 sequence: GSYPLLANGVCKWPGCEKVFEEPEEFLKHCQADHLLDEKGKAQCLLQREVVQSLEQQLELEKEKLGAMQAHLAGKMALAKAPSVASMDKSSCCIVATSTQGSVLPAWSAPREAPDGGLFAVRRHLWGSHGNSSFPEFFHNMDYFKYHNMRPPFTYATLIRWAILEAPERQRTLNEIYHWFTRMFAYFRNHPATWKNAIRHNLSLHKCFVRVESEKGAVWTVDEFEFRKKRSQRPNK
# Experiment: PD-seq (MBP pull-down with sequencing)
# Details: 20 mM Tris-HCl pH 7.5, 100 mM NaCl, 1.5 mM MgCl2, 0.4 uM protein, 0.1 uM dsDNA library, 30 min, room temperature, amylose pull-down; high values mean tight binding; double strand, one strand shown
row,Sequence,binding signal (RPM ratio (pull-down/input))
1,GATGATTGTTCTCCCAGCTGATGAATTAAGGGCCTCGAGTAAACAAATTTTCCTAATCTTTCTGTTCAAGCGCCATCTAC,0.451
2,GATGATTGTTCTCCCAGCTGATGAATTATATGAATCGAGTAAACAAATTTTCCTAATCTTTCTGTTCAAGCGCCATCTAC,0.419
3,GATGATTGTTCTCCCAGCTGATGAATTATATACGTCGAGTAAACAAATTTTCCTAATCTTTCTGTTCAAGCGCCATCTAC,0.728
4,GATGATTGTTCTCCCAGCTGATGAATTGGAAGTTTCGAGTAAACAAATTTTCCTAATCTTTCTGTTCAAGCGCCATCTAC,0.298
5,GATGATTGTTCTCCCAGCTGATGAATTATTGTAGTCGAGTAAACAAATTTTCCTAATCTTTCTGTTCAAGCGCCATCTAC,0.771
6,GATGATTGTTCTCCCAGCTGATGAATTCATTGCATCGAGTAAACAAATTTTCCTAATCTTTCTGTTCAAGCGCCATCTAC,1.32
7,GATGATTGTTCTCCCAGCTGATGAATTACCCCCTTCGAGTAAACAAATTTTCCTAATCTTTCTGTTCAAGCGCCATCTAC,0.287
8,GATGATTGTTCTCCCAGCTGATGAATTACTTTGGTCGAGTAAACAAATTTTCCTAATCTTTCTGTTCAAGCGCCATCTAC,0.512
9,GATGATTGTTCTCCCAGCTGATGAATTTACAAGTTCGAGTAAACAAATTTTCCTAATCTTTCTGTTCAAGCGCCATCTAC,0.469
10,GATGATTGTTCTCCCAGCTGATGAATTTCAGTTCTCGAGTAAACAAATTTTCCTAATCTTTCTGTTCAAGCGCCATCTAC,0.671
11,GATGATTGTTCTCCCAGCTGATGAATTCTCGTAATCGAGTAAACAAATTTTCCTAATCTTTCTGTTCAAGCGCCATCTAC,0.536
12,GATGATTGTTCTCCCAGCTGATGAATTTAGATTTTCGAGTAAACAAATTTTCCTAATCTTTCTGTTCAAGCGCCATCTAC,0.795
13,GATGATTGTTCTCCCAGCTGATGAATTAAATATATCGAGTAAACAAATTTTCCTAATCTTTCTGTTCAAGCGCCATCTAC,0.59
14,GATGATTGTTCTCCCAGCTGATGAATTTGACCCGTCGAGTAAACAAATTTTCCTAATCTTTCTGTTCAAGCGCCATCTAC,0.347
15,GATGATTGTTCTCCCAGCTGATGAATTAACCCGTTCGAGTAAACAAATTTTCCTAATCTTTCTGTTCAAGCGCCATCTAC,0.254
16,GATGATTGTTCTCCCAGCTGATGAATTGTTTTTCTCGAGTAAACAAATTTTCCTAATCTTTCTGTTCAAGCGCCATCTAC,4.35
17,GATGATTGTTCTCCCAGCTGATGAATTCAAAATATCGAGTAAACAAATTTTCCTAATCTTTCTGTTCAAGCGCCATCTAC,0.693
18,GATGATTGTTCTCCCAGCTGATGAATTACGACGATCGAGTAAACAAATTTTCCTAATCTTTCTGTTCAAGCGCCATCTAC,0.326
19,GATGATTGTTCTCCCAGCTGATGAATTTCCACATTCGAGTAAACAAATTTTCCTAATCTTTCTGTTCAAGCGCCATCTAC,0.331
20,GATGATTGTTCTCCCAGCTGATGAATTCCGGACATCGAGTAAACAAATTTTCCTAATCTTTCTGTTCAAGCGCCATCTAC,0.323
21,GATGATTGTTCTCCCAGCTGATGAATTTGTGAGGTCGAGTAAACAAATTTTCCTAATCTTTCTGTTCAAGCGCCATCTAC,2.87

row,Sequence,binding signal (RPM ratio (pull-down/input))
1,GATGATTGTTCTCCCAGCTGATGAATTCAGCTTTTCGAGTAAACAAATTTTCCTAATCTTTCTGTTCAAGCGCCATCTAC,2.53
2,GATGATTGTTCTCCCAGCTGATGAATTAGAATTATCGAGTAAACAAATTTTCCTAATCTTTCTGTTCAAGCGCCATCTAC,0.709
3,GATGATTGTTCTCCCAGCTGATGAATTAATAATTTCGAGTAAACAAATTTTCCTAATCTTTCTGTTCAAGCGCCATCTAC,0.344
4,GATGATTGTTCTCCCAGCTGATGAATTCAACCCTTCGAGTAAACAAATTTTCCTAATCTTTCTGTTCAAGCGCCATCTAC,0.317
5,GATGATTGTTCTCCCAGCTGATGAATTAATCAGGTCGAGTAAACAAATTTTCCTAATCTTTCTGTTCAAGCGCCATCTAC,0.253
6,GATGATTGTTCTCCCAGCTGATGAATTGAAGCGATCGAGTAAACAAATTTTCCTAATCTTTCTGTTCAAGCGCCATCTAC,0.452
7,GATGATTGTTCTCCCAGCTGATGAATTAACCGTATCGAGTAAACAAATTTTCCTAATCTTTCTGTTCAAGCGCCATCTAC,0.403
8,GATGATTGTTCTCCCAGCTGATGAATTACCACTGTCGAGTAAACAAATTTTCCTAATCTTTCTGTTCAAGCGCCATCTAC,0.41
9,GATGATTGTTCTCCCAGCTGATGAATTCATCCCTTCGAGTAAACAAATTTTCCTAATCTTTCTGTTCAAGCGCCATCTAC,0.459
10,GATGATTGTTCTCCCAGCTGATGAATTGCCCGTCTCGAGTAAACAAATTTTCCTAATCTTTCTGTTCAAGCGCCATCTAC,0.482
11,GATGATTGTTCTCCCAGCTGATGAATTCACAAGATCGAGTAAACAAATTTTCCTAATCTTTCTGTTCAAGCGCCATCTAC,0.236
12,GATGATTGTTCTCCCAGCTGATGAATTTCGAAATTCGAGTAAACAAATTTTCCTAATCTTTCTGTTCAAGCGCCATCTAC,0.5
13,GATGATTGTTCTCCCAGCTGATGAATTGGCCGTTTCGAGTAAACAAATTTTCCTAATCTTTCTGTTCAAGCGCCATCTAC,0.498
14,GATGATTGTTCTCCCAGCTGATGAATTCAAGACCTCGAGTAAACAAATTTTCCTAATCTTTCTGTTCAAGCGCCATCTAC,0.209
15,GATGATTGTTCTCCCAGCTGATGAATTGGTTCGTTCGAGTAAACAAATTTTCCTAATCTTTCTGTTCAAGCGCCATCTAC,0.43
16,GATGATTGTTCTCCCAGCTGATGAATTTCGTAAGTCGAGTAAACAAATTTTCCTAATCTTTCTGTTCAAGCGCCATCTAC,0.41
17,GATGATTGTTCTCCCAGCTGATGAATTTCTATTTTCGAGTAAACAAATTTTCCTAATCTTTCTGTTCAAGCGCCATCTAC,0.543
18,GATGATTGTTCTCCCAGCTGATGAATTATAGAAATCGAGTAAACAAATTTTCCTAATCTTTCTGTTCAAGCGCCATCTAC,0.267
19,GATGATTGTTCTCCCAGCTGATGAATTATCCAGCTCGAGTAAACAAATTTTCCTAATCTTTCTGTTCAAGCGCCATCTAC,0.227
20,GATGATTGTTCTCCCAGCTGATGAATTTACACCATCGAGTAAACAAATTTTCCTAATCTTTCTGTTCAAGCGCCATCTAC,0.881
21,GATGATTGTTCTCCCAGCTGATGAATTCGCCAGCTCGAGTAAACAAATTTTCCTAATCTTTCTGTTCAAGCGCCATCTAC,0.312

row,Sequence,binding signal (RPM ratio (pull-down/input))
1,GATGATTGTTCTCCCAGCTGATGAATTCCTCGCCTCGAGTAAACAAATTTTCCTAATCTTTCTGTTCAAGCGCCATCTAC,0.44
2,GATGATTGTTCTCCCAGCTGATGAATTAACATCCTCGAGTAAACAAATTTTCCTAATCTTTCTGTTCAAGCGCCATCTAC,0.476
3,GATGATTGTTCTCCCAGCTGATGAATTGAAAAAGTCGAGTAAACAAATTTTCCTAATCTTTCTGTTCAAGCGCCATCTAC,0.161
4,GATGATTGTTCTCCCAGCTGATGAATTAGTTATTTCGAGTAAACAAATTTTCCTAATCTTTCTGTTCAAGCGCCATCTAC,4.85
5,GATGATTGTTCTCCCAGCTGATGAATTCTGAGGGTCGAGTAAACAAATTTTCCTAATCTTTCTGTTCAAGCGCCATCTAC,0.308
6,GATGATTGTTCTCCCAGCTGATGAATTCGGGACGTCGAGTAAACAAATTTTCCTAATCTTTCTGTTCAAGCGCCATCTAC,0.287
7,GATGATTGTTCTCCCAGCTGATGAATTTACTAAGTCGAGTAAACAAATTTTCCTAATCTTTCTGTTCAAGCGCCATCTAC,0.32
8,GATGATTGTTCTCCCAGCTGATGAATTAGGTCCTTCGAGTAAACAAATTTTCCTAATCTTTCTGTTCAAGCGCCATCTAC,0.354
9,GATGATTGTTCTCCCAGCTGATGAATTCTCGGGCTCGAGTAAACAAATTTTCCTAATCTTTCTGTTCAAGCGCCATCTAC,0.204
10,GATGATTGTTCTCCCAGCTGATGAATTCGTTCTCTCGAGTAAACAAATTTTCCTAATCTTTCTGTTCAAGCGCCATCTAC,0.324
11,GATGATTGTTCTCCCAGCTGATGAATTAGTCCCTTCGAGTAAACAAATTTTCCTAATCTTTCTGTTCAAGCGCCATCTAC,0.675
12,GATGATTGTTCTCCCAGCTGATGAATTTCCGATATCGAGTAAACAAATTTTCCTAATCTTTCTGTTCAAGCGCCATCTAC,0.376
13,GATGATTGTTCTCCCAGCTGATGAATTATCGGACTCGAGTAAACAAATTTTCCTAATCTTTCTGTTCAAGCGCCATCTAC,0.253
14,GATGATTGTTCTCCCAGCTGATGAATTTCTACGCTCGAGTAAACAAATTTTCCTAATCTTTCTGTTCAAGCGCCATCTAC,0.231
15,GATGATTGTTCTCCCAGCTGATGAATTTTCCTTATCGAGTAAACAAATTTTCCTAATCTTTCTGTTCAAGCGCCATCTAC,0.31
16,GATGATTGTTCTCCCAGCTGATGAATTGCCGTGATCGAGTAAACAAATTTTCCTAATCTTTCTGTTCAAGCGCCATCTAC,0.686
17,GATGATTGTTCTCCCAGCTGATGAATTTGATTATTCGAGTAAACAAATTTTCCTAATCTTTCTGTTCAAGCGCCATCTAC,4.96
18,GATGATTGTTCTCCCAGCTGATGAATTCGAGACCTCGAGTAAACAAATTTTCCTAATCTTTCTGTTCAAGCGCCATCTAC,0.251
19,GATGATTGTTCTCCCAGCTGATGAATTCCCCAGTTCGAGTAAACAAATTTTCCTAATCTTTCTGTTCAAGCGCCATCTAC,0.215
20,GATGATTGTTCTCCCAGCTGATGAATTGCGTCACTCGAGTAAACAAATTTTCCTAATCTTTCTGTTCAAGCGCCATCTAC,1.97
21,GATGATTGTTCTCCCAGCTGATGAATTAGTAATGTCGAGTAAACAAATTTTCCTAATCTTTCTGTTCAAGCGCCATCTAC,1.13
